pKd: −log10 of the molar value. For part of these data: Part of at least one peptide drawing is inferred or uncertain, most often the ends. For part of these data: For at least one compound, name, drawing or mass did not settle the structure.
How the values were obtained:
[1] = target: GDP-bound KRAS wild-type protein (Homo sapiens, UniProt P01116); assay: Binding to KRAS by surface plasmon resonance (SPR), dissociation constant KD
Experimental: (§1) Surface plasmon resonance was used to analyze the binding affinity of compounds for KRAS, NRAS, and HRAS. The apparatus used was Biacore 8K, 8K+, or T200 (GE Healthcare), and the running buffer used was HBS (10 mM HEPES-NaOH, 150 mM NaCl, pH 7.4) containing 1 mM DTT, 10 mM MgCl2, 0.01% Tween 20, 10 µM GDP, and 4% DMSO.
(§2) Biotinylated Avi-tag fusion KRAS, NRAS, and HRAS proteins were expressed in E. coli BL21 (DE3) strains, and after cells were homogenized, they were purified using Streptavidin Mutein Matrix and Superdex 75. After purification, GDP-loaded KRAS, NRAS, and HRAS proteins were immobilized on the surface of Sensor Chip CAP (Cytiva) coated with Biotin CAPture Reagent in an immobilization amount of about 100 to 300 RU. Binding of each compound was evaluated by the Single Cycle Kinetics method, and a running buffer or a compound solution was added to the RAS protein non-immobilized surface and the immobilized surface to obtain a binding response. The flow rate was set to 100 µL/min, and in the compound-adding cycle, compound solutions having different concentrations were intermittently added for 75 seconds each, starting from a low concentration. […] In the blank cycle, a running buffer was intermittently added and not the compound solution. The Biotin CAPture Reagent and RAS proteins were immobilized for each cycle, and at the end of each cycle, the sensor chip was regenerated by the regeneration solution appended to the Biotin CAPture Kit (Cytiva). Measurement was carried out at 30°C.
(§3) The resulting sensorgram was subjected to curve fitting based on a 1:1 binding model on Biacore Insight Evaluation Software or T200 Evaluation Software, and thereby the dissociation constant KD of each compound with respect to KRAS, NRAS, and HRAS was determined. […] Blank indicates a compound from which the KD value with respect to NRAS or HRAS was not obtained.

[2] = target: HRAS wild-type protein (Homo sapiens, UniProt P01112); assay: Binding to HRAS by surface plasmon resonance (SPR), KD and KD ratio to KRAS; conditions: ratio of KD for HRAS wild-type protein to KD for KRAS
Chain of HRAS wild-type protein (P01112 whole entry): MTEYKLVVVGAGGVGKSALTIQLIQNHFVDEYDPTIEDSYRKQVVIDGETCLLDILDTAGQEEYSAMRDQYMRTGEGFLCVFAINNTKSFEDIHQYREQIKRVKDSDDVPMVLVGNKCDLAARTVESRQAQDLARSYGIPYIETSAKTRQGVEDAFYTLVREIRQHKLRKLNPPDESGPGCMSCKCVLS
Experimental: as §1, §2, §3

[3] = target: GDP-bound NRAS wild-type protein (Homo sapiens, UniProt P01111); assay: Binding to NRAS by surface plasmon resonance (SPR), KD and KD ratio to KRAS; conditions: ratio of KD for GDP-bound NRAS wild-type protein to KD for KRAS
Chain of GDP-bound NRAS wild-type protein (P01111 whole entry): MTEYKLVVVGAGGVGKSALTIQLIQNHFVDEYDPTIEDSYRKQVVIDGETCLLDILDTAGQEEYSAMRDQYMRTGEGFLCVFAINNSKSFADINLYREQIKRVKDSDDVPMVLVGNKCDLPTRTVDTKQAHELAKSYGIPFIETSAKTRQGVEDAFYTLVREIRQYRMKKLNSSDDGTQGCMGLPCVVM
Experimental: as §1, §2, §3

[4] = Single Cycle Kinetics, 1:1 binding model

Chain of GDP-bound KRAS wild-type protein (P01116 1-188 isoform P01116-2): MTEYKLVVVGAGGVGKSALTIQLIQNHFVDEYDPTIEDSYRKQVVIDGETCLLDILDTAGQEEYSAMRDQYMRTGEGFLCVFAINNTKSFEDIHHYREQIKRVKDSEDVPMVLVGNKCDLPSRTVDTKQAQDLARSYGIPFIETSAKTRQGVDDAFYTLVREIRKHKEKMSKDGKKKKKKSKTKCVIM

Compound	pKd [1, 4]	pKd ([1]; 1:1 binding model)	further results
CCO[C@@H]1C[C@H]2C(=O)NC3(CC(C)(C)C3)C(=O)N(C)[C@@H](C(CC)CC)C(=O)N(C)C(C(C)C)CC(=O)N(C)[C@@H](CC3CC3)C(=O)N[C@@H]([C@@H](C)CC)C(=O)N(C)CC(=O)N(C)[C@H]3C/C=C\CCN(C3=O)[C@@H](Cc3ccc(C(F)(F)F)cc3)C(=O)N(C)CC(=O)N[C@@H](CCc3cc(F)c(C(F)(F)F)c(F)c3)C(=O)N2C1 (stereo partly drawn) [PP1593]	8.37	–	–
CC[C@H](C)[C@@H]1NC(=O)[C@H](CC(C)C)N(C)C(=O)C[C@@H](C(=O)N2CCOCC2)N(C)C(=O)[C@H](C2CCCC2)N(C)C(=O)C2(CCC2)NC(=O)[C@@H]2[C@@H](OCCC(F)(F)F)CCN2C(=O)[C@H](CCc2cc(F)c(C(F)(F)F)c(F)c2)NC(=O)CN(C)C(=O)[C@H](Cc2ccc(C(F)(F)F)cc2)N2CCCCC[C@@H](C2=O)N(C)C(=O)CN(C)C1=O [PP1008]	–	–	HRAS /KRAS [2]: B (a compound having 3 or more and less than 10 is denoted as B); NRAS /KRAS [3]: A (a compound having 10 or more and less than 20 is denoted as A)
CCC[C@H]1C(=O)N[C@@H](C2CCCC2)C(=O)N(C)CC(=O)N(C)[C@H]2C/C=C\CCN(C2=O)[C@@H](Cc2ccc(C)cc2)C(=O)N(C)CC(=O)N[C@@H](CCc2cc(F)c(C(F)(F)F)c(F)c2)C(=O)N2CC3(CC3)C[C@H]2C(=O)NC2(CC(C)(C)C2)C(=O)N(C)[C@@H](C2CCCC2)C(=O)N(C)[C@H](C(=O)N(C)C)CC(=O)N1C [PP2990]	–	9.59	–
C#CC[C@H]1C(=O)N[C@@H]([C@@H](C)CC)C(=O)N(C)CC(=O)N(C)[C@H]2C/C=C\CCN(C2=O)[C@@H](Cc2ccc(C(F)(F)F)cc2)C(=O)N(C)CC(=O)N[C@@H](CCc2cc(F)c(C(F)(F)F)c(F)c2)C(=O)N2CC3(CC3)C[C@H]2C(=O)NC2(CC(C)(C)C2)C(=O)N(C)[C@@H](C2CCCC2)C(=O)N(C)[C@H](C(=O)N(C)C)CC(=O)N1C [PP2976]	–	9.74	–
CCO[C@@H]1C[C@H]2C(=O)NC3(CC(C)(C)C3)C(=O)N(C)[C@@H](C3CCCC3)C(=O)N(C)[C@H](C(=O)N(C)C)CC(=O)N(C)[C@H]3CCCCCc4ccc(cc4)C[C@@H](C(=O)N(C)CC(=O)N[C@@H](CCc4ccc(C(F)(F)F)c(OC)c4)C(=O)N2C1)N1CC/C=C\C[C@@H](C1=O)N(C)C(=O)CN(C1CC1)C(=O)[C@H]([C@@H](C)CC)NC3=O [PP3075]	–	10.12	–
CC[C@H](C)[C@@H]1NC(=O)[C@H](CC(C)C)N(C)C(=O)C[C@@H](C(=O)N2CCOCC2)N(C)C(=O)[C@H](C2CCCC2)N(C)C(=O)C2(CCC2)NC(=O)[C@@H]2C[C@@H](O)CN2C(=O)[C@H](CCc2cc(F)c(C(F)(F)F)c(F)c2)NC(=O)CN(C)C(=O)[C@H](Cc2ccc(C(F)(F)F)cc2)N2CCCCC[C@@H](C2=O)N(C)C(=O)CN(C)C1=O [PP0871]	–	–	HRAS /KRAS [2]: B (a compound having 3 or more and less than 10 is denoted as B); NRAS /KRAS [3]: B (a compound having 3 or more and less than 10 is denoted as B)
CCO[C@@H]1C[C@H]2C(=O)NC3(CC(C)(C)C3)C(=O)N(C)[C@@H](C3CCCC3)C(=O)N(C)[C@H](C(=O)N(C)C)CC(=O)N(C)[C@H]3CCCCCCc4ccc(cc4)C[C@@H](C(=O)N(C)CC(=O)N[C@@H](CCc4ccc(C(F)(F)F)c(OC)c4)C(=O)N2C1)N1CC/C=C\C[C@@H](C1=O)N(C)C(=O)CN(C1CC1)C(=O)[C@H]([C@@H](C)CC)NC3=O [PP3070]	–	9.77	–
CCO[C@@H]1C[C@H]2C(=O)NC3(CCC3)C(=O)N(C)[C@@H](C3CCCC3)C(=O)N(C)C(C(C)C)CC(=O)N(C)[C@@H](CC)C(=O)N[C@@H]([C@@H](C)CC)C(=O)N(C)CC(=O)N(C)[C@H]3C/C=C\CCN(C3=O)[C@@H](Cc3ccc(C(F)(F)F)cc3)C(=O)N(C)CC(=O)N[C@@H](CCc3cc(F)c(C(F)(F)F)c(F)c3)C(=O)N2C1 (stereo partly drawn) [PP1590]	9.54	–	–
CCO[C@@H]1C[C@H]2C(=O)NC3(CCC3)C(=O)N(C)[C@@H](C3CCCC3)C(=O)N(C)[C@H](C(=O)N3CCOCC3)CC(=O)N(C)[C@@H](CC(C)C)C(=O)N[C@@H]([C@@H](C)CC)C(=O)N(C)CC(=O)N(C)[C@H]3CCCCCN(C3=O)[C@@H](Cc3ccc4sccc4c3)C(=O)N(C)CC(=O)N[C@@H](CCc3cc(F)c(C(F)(F)F)c(F)c3)C(=O)N2C1 [PP0920]	–	–	pKd ([1]; Single Cycle Kinetics): 9.54
CCO[C@@H]1C[C@H]2C(=O)NC3(CC(F)(F)C3)C(=O)N(C)[C@@H](C3CCCC3)C(=O)N(C)C(C3CCCCC3)CC(=O)N(C)[C@@H](COC)C(=O)N[C@@H]([C@@H](C)CC)C(=O)N(C)CC(=O)N(C)[C@H]3C/C=C\CCN(C3=O)[C@@H](Cc3ccc(C(F)(F)F)cc3)C(=O)N(C)CC(=O)N[C@@H](CCc3cc(F)c(C(F)(F)F)c(F)c3)C(=O)N2C1 (stereo partly drawn) [PP1586]	9.12	–	–

From EP4603105A1, “PHARMACEUTICAL COMPOSITION CONTAINING CYCLIC COMPOUND HAVING SELECTIVE KRAS INHIBITORY EFFECT AGAINST HRAS AND NRAS” (CHUGAI SEIYAKU KABUSHIKI KAISHA, priority 2022, dated 2024)
